From the supplement of paper PMC12462457
Structures can show the parent of a compound that is named as a salt. ± gives the standard deviation of the averaged measurements. Some of the results follow.

Tested on: OVCAR8
Test: cell count relative to DMSO vehicle (fold change); OVCAR8 is a high-grade serous ovarian cancer line and CX-5461 an RNA polymerase I inhibitor; higher = more surviving senescent cells (less killing)
Conditions: senescence inducer: CX-5461 3 µM 48 h, then 6 d recovery (CX senescent), exposure time 24 h

Row | Compound | cell count (compound dose 1 µM) | cell count (compound dose 5 µM)
1 | COc1ccc(-c2nc(N3CCOCC3)c3sc(CN(C)c4ncc(C(=O)NO)cn4)cc3n2)cn1 | 0.893 ± 0.58 | 0.71 ± 0.53
2 | Cc1cnc(Nc2ccc(OCCN3CCCC3)cc2)nc1Nc1cccc(S(=O)(=O)NC(C)(C)C)c1 | 1 ± 0.1 | 0.733 ± 0.43
3 | c1ccc2c(CCNc3ccc(Nc4ccncc4)cc3)c[nH]c2c1 [Serdemetan] | 0.954 ± 0.071 | 0.798 ± 0.088
4 | COc1ccc(-c2cc(=O)c3c(O)c(OC)c(OC)c(OC)c3o2)cc1 | 1.2 ± 0.12 | 1.08 ± 0.16
5 | CCCCCCCC/C=C/CCCCCCCC(=O)OC[C@H]1O[C@@H](n2ccc(N)nc2=O)C(F)(F)[C@@H]1O [Gemcitabine (elaidate)] | 1.2 ± 0.3 | 1.09 ± 0.24
6 | Cc1cc(/C=C2\CC/C(=C\c3cc(C)c(O)c(C)c3)C2=O)cc(C)c1O [Pentagamavunon-1] | 1.09 ± 0.14 | 1.05 ± 0.029
7 | CCCOc1ccc2[nH]c(NC(=O)OC)nc2c1 | 1.16 ± 0.035 | 1.159 ± 0.0021
8 | CN1CCN(c2ccc3nc(-c4ccc5nc(-c6cccc(OCCCC(=O)NCCCN=[N+]=[N-])c6)[nH]c5c4)[nH]c3c2)CC1 [Targapremir-210] | 1.08 ± 0.31 | 1.04 ± 0.27
9 | O=C(c1ccc(F)c(F)c1Nc1ccc(I)cc1F)N1CC(O)([C@@H]2CCCCN2)C1 [Cobimetinib] | 1.15 ± 0.064 | 1.15 ± 0.049
10 | CCCCS(=N)(=O)CCC(N)C(=O)O (stereo unspecified) | 1.16 ± 0.29 | 0.912 ± 0.0057
11 | C=CC(=O)N1CCC[C@H](n2c(=O)n(-c3ccc(Oc4ccccc4)cc3)c3c(N)ncnc32)C1 [ONO-4059 (analog)] | 1.07 ± 0.018 | 0.957 ± 0.076
12 | COc1cc(O)c(C(=O)/C=C/c2ccccc2)c(OC)c1 [Flavokawain B] | 1.18 ± 0.092 | 1.2 ± 0.19
13 | CCCc1nn(C)c2c(=O)[nH]c(-c3cc(S(=O)(=O)N4CCN(C)CC4)ccc3OCC)nc12 | 1.09 ± 0.019 | 1.21 ± 0.093
14 | N#CC[C@H](C1CCCC1)n1cc(-c2ncnc3[nH]ccc23)cn1 [Ruxolitinib] | 0.958 ± 0.25 | 0.618 ± 0.16
15 | COc1cc(CNC(=O)CCCCCCC(C)C)ccc1O [Dihydrocapsaicin] | 1.09 ± 0.12 | 0.971 ± 0.11
16 | O=C1O[C@H]([C@@H](O)CO)C(O)=C1O [L-Ascorbic acid] | 1.1 ± 0.44 | 1.11 ± 0.22
17 | Clc1ccc(C(c2ccccc2Cl)C(Cl)Cl)cc1 (stereo unspecified) | 1.16 ± 0.076 | 1.05 ± 0.025
18 | O=C(O)C1(c2ccc(-c3ccc(Cl)c(Cl)c3)c(F)c2)CC1 [Itanapraced] | 1.03 ± 0.26 | 1.08 ± 0.059
19 | CNCc1ccc(C)c(NC(=O)c2ccc(Nc3nc(-c4ccccc4)c4ccccc4n3)cc2)c1 | 1.02 ± 0.11 | 1.07 ± 0.03
20 | CCCc1cc2c(N3CCN(C4=NCC(C)(C)S4)CC3)ncnc2s1 [MI-2 (Menin-MLL Inhibitor)] | 1.16 ± 0.16 | 0.989 ± 0.059
21 | CCCCN1CCCC[C@H]1C(=O)Nc1c(C)cccc1C [Levobupivacaine (hydrochloride)] | 1.04 ± 0.1 | 0.979 ± 0.19
22 | Fc1ccc(Nc2nc(Nc3ccc(-c4nc5ccccc5[nH]4)cc3)nc(N3CCOCC3)n2)cc1 | 0.867 ± 0.14 | 0.826 ± 0.11
23 | O=C(Nc1ccc(CN2CCOCC2)cc1)c1ccc(-c2cccc(Cl)c2)o1 | 0.969 ± 0.036 | 1.02 ± 0.033

Row | Compound | cell count (compound dose 1 µM) | cell count (compound dose 5 µM)
24 | Cc1cc(F)c(C(=O)Nc2cccc(-c3nncn3C(C)C)n2)cc1-n1cnc(C2CC2)c1 [Selonsertib] | 1.04 ± 0.17 | 0.843 ± 0.2
25 | CNC(=O)COc1cc2cc(Nc3nc(N4CCC(C(=O)N(C)C)CC4)ncc3Cl)cc(OC)c2n(C)c1=O | 1.09 ± 0.22 | 1.1 ± 0.16
26 | COc1cc(Nc2ncc3c(n2)-c2ccc(Cl)cc2C(c2c(F)cccc2OC)=NC3)ccc1C(=O)O [Alisertib (MLN8237)] | 0.939 ± 0.059 | 0.739 ± 0.079
27 | O=c1cc(N2CCOCC2)oc2c(-c3ccccc3)cccc12 | 1.04 ± 0.021 | 1.26 ± 0.076
28 | COc1ccc2cc1Oc1ccc(cc1)C[C@H]1c3cc(c(OC)cc3CCN1C)Oc1c(O)c(OC)cc3c1[C@H](C2)N(C)CC3 [Fangchinoline] | 1.04 ± 0.11 | 1.0895 ± 0.00071
29 | Nc1cc(C(F)(F)F)c(-c2cc(N3CCOCC3)nc(N3CCOCC3)n2)cn1 [Buparlisib (BKM120, NVP-BKM120)] | 1.2 ± 0.18 | 1.27 ± 0.33
30 | O=C(O)c1cc(=O)c2ccccc2[nH]1 | 1.15 ± 0.095 | 1.233 ± 0.0014
31 | O=C(O)c1cc(=O)c2ccccc2[nH]1 [Kynurenic acid (sodium)] | 1.2 ± 0.16 | 1.14 ± 0.14
32 | Clc1cccc(CN=C2Nc3ccccc3NC23CCNCC3)c1 [Liproxstatin-1] | 1.1 ± 0.14 | 1.04 ± 0.044
33 | C[C@H]1[C@H](C)CC[C@]2(C(=O)O)CC[C@]3(C)C(=CC[C@@H]4[C@@]5(C)C[C@@H](O)[C@H](O)[C@@](C)(CO)[C@@H]5[C@H](O)C[C@]43C)[C@H]12 [Madecassic acid] | 1.18 ± 0.15 | 1.25 ± 0.2
34 | CNc1ccc([N+](=O)[O-])c(Nc2ccc3[nH]ncc3c2)n1 | 0.59 ± 0.013 | 0.27 ± 0.023
35 | O=C(O)CCC(=O)c1ccc(-c2ccccc2)cc1 | 1.09 ± 0.11 | 1.14 ± 0.14
36 | CCOC(=O)c1ccc(NC2CCCCC2)c(N)c1 [Ferrostatin-1] | 0.966 ± 0.069 | 0.852 ± 0.12
37 | C[C@@H]1O[C@@H](O[C@H]2[C@H](O[C@H]3CC[C@@]4(C)[C@@H](CC[C@]5(C)[C@@H]4CC=C4[C@@H]6CC(C)(C)CC[C@]6(C(=O)O)CC[C@]45C)[C@]3(C)CO)OC[C@H](O)[C@@H]2O)[C@H](O)[C@H](O)[C@H]1O [alpha-Hederin] | 1.24 ± 0.23 | 1.22 ± 0.14
38 | CC1(C)CC[C@]2(NC(=O)C(C)(F)F)CC[C@]3(C)[C@H](C(=O)C=C4[C@@]5(C)C=C(C#N)C(=O)C(C)(C)[C@@H]5CC[C@]43C)[C@@H]2C1 [Omaveloxolone] | 0.94 ± 0.0057 | 0.002 ± 0.0028
39 | O=C(NNc1nc2cc(F)ccc2n2cccc12)c1cnccn1 | 1.27 ± 0.019 | 1.2245 ± 0.00071
40 | CCN1C(=O)C=CC1=O [N-Ethylmaleimide] | 1.06 ± 0.15 | 1.03 ± 0.11
41 | COc1ccc2[nH]cc(/C=C3\C(=O)Nc4ccc(NC(=O)CCN5CCCCC5)cc43)c2c1 | 1.13 ± 0.064 | 0.831 ± 0.051
42 | Cc1nnc(NC(=O)c2nc(S(=O)(=O)Cc3ccc(F)cc3)ncc2Cl)s1 | 0.99 ± 0.045 | 0.425 ± 0.04
43 | C[C@H](Nc1ccc2c(c1)OCCn1cc(N3C(=O)OC[C@H]3C(F)F)nc1-2)C(N)=O | 1.13 ± 0.17 | 1.1 ± 0.083
44 | CC1(C)C=C(CN2C/C(=C\c3ccc(F)cc3)C(=O)/C(=C/c3ccc(F)cc3)C2)C(C)(C)N1O | 1.15 ± 0.24 | 1.06 ± 0.19
45 | COc1ccc(-c2cc(Nc3ccnc(N4CCOCC4)n3)on2)cc1 | 1.2 ± 0.15 | 1.068 ± 0.0028
46 | COc1ccc(/C=C/c2cc(O)cc(O[C@@H]3O[C@H](CO)[C@@H](O)[C@H](O)[C@H]3O)c2)cc1O [Rhapontin] | 1.08 ± 0.087 | 1.21 ± 0.051

Row | Compound | cell count (compound dose 1 µM) | cell count (compound dose 5 µM)
47 | Cc1c2c(nn1C)CSCc1cc(n(C)n1)CSc1cc(c3ccccc3c1)OCCCc1c(C(=O)O)n(C)c3c-2c(Cl)ccc13 | 1.187 ± 0.0021 | 1.22 ± 0.049
48 | COc1ccc(-c2ccc3cc(C(=O)O)ccc3c2)cc1C12CC3CC(CC(C3)C1)C2 | 1.19 ± 0.084 | 1.22 ± 0.081
49 | C=CCNC1=C2C[C@@H](C)C[C@H](OC)[C@H](O)[C@@H](C)/C=C(\C)[C@H](OC(N)=O)[C@@H](OC)/C=C\C=C(/C)C(=O)NC(=CC1=O)C2=O [Tanespimycin] | 1.19 ± 0.27 | 1.08 ± 0.24
50 | CNc1nc(C)c(-c2nc(Nc3cccc(S(N)(=O)=O)c3)ncc2F)s1 | 1.19 ± 0.23 | 1.14 ± 0.028
51 | CN1C(=O)NC(Cc2c[nH]c3c(Cl)cccc23)C1=O (racemic) [Necrostatin 2 (racemate)] | 1.12 ± 0.18 | 0.929 ± 0.088
52 | O=C(CCl)NCc1cccc2c1C(=O)N(C1CCC(=O)NC1=O)C2=O (stereo unspecified) | 1.02 ± 0.18 | 0.901 ± 0.16
53 | O=C1Nc2ccccc2C1=O [Isatin] | 1.16 ± 0.1 | 0.941 ± 0.16
54 | COc1ccc(-c2cc(=O)c3c(OC)c(OC)c(OC)c(OC)c3o2)cc1 | 1.12 ± 0.085 | 0.991 ± 0.0071
55 | CO[C@H]1C[C@@H]2CC[C@@H](C)[C@@](O)(O2)C(=O)C(=O)N2CCCC[C@H]2C(=O)O[C@H]([C@H](C)C[C@@H]2CC[C@@H](OC(=O)C(C)(CO)CO)[C@H](OC)C2)CC(=O)[C@H](C)/C=C(\C)[C@@H](O)[C@@H](OC)C(=O)[C@H](C)C[C@H](C)/C=C/C=C/C=C/1C [Temsirolimus] | 1.17 ± 0.3 | 1.2 ± 0.28
56 | COc1ccc(-c2cc(=O)c3c(OC)c(OC)c(OC)c(OC)c3o2)cc1OC | 1.009 ± 0.0057 | 0.875 ± 0.076
57 | Cn1nnc2c(C(N)=O)ncn2c1=O | 1.14 ± 0.19 | 1.11 ± 0.14
58 | C=C1C(=O)O[C@H]2[C@H]1CC/C(C)=C/CC[C@@]1(C)O[C@@H]21 [Parthenolide] | 0.963 ± 0.025 | 0.957 ± 0.067
59 | COc1ccc(-c2cc3nccn3c(Nc3ncccc3C(N)=O)n2)cc1OC [BAY 61-3606 (dihydrochloride)] | 0.873 ± 0.011 | 0.577 ± 0.042
60 | COCCOc1cnc(Sc2cc(C)c(-c3csc(NC(=O)c4ccncc4)n3)c(C)c2)cn1 [T-1101 (tosylate)] | 1.16 ± 0.33 | 1.18 ± 0.31
61 | Cc1ccc(C(=O)Cn2c3c(sc2=N)CCCC3)cc1 [Pifithrin-α (hydrobromide)] | 1.08 ± 0.13 | 0.985 ± 0.016
62 | CNC(=O)[C@H]1O[C@@H](n2cnc3c(NCc4ccc(I)cc4)ncnc32)[C@H](O)[C@@H]1O [Piclidenoson] | 1.02 ± 0.23 | 0.429 ± 0.024
63 | Cn1cnc2c(F)c(Nc3ccc(Br)cc3Cl)c(C(=O)NOCCO)cc21 [Selumetinib (AZD6244)] | 1.24 ± 0.23 | 1.25 ± 0.018
64 | CC1(C)O[C@@H]2C[C@H]3[C@@H]4C[C@H](F)C5=CC(=O)C=C[C@]5(C)[C@H]4[C@@H](O)C[C@]3(C)[C@]2(C(=O)CO)O1 [Flunisolide] | 1.19 ± 0.4 | 1.02 ± 0.07
65 | CCOC(=O)c1c2c3c(cccc3[nH]c1=O)C(=O)c1ccccc1-2 | 0.959 ± 0.026 | 0.974 ± 0.1
66 | COc1ccc(-c2cc(=O)c3c(OC)cc(OC)cc3o2)cc1 | 1.1 ± 0.12 | 1.03 ± 0.15
67 | CC(ONC(=O)c1cc(C(F)(F)F)cc(C(F)(F)F)c1)C(=O)Nc1ccc(Cl)cc1 (stereo unspecified) | 1.06 ± 0.14 | 1.08 ± 0.26
68 | CCCCC[C@H](CC(=O)NO)C(=O)N[C@H](C(=O)N1CCC[C@H]1CO)C(C)C [Actinonin] | 1.12 ± 0.33 | 1.14 ± 0.13
